Experimental data from PubChem BioAssay AID889 (National Center for Advancing Translational Sciences (NCATS), 2007).
Out of some 75,000 compounds screened, about 15 (0.02%) were called active. The inconclusive results got no clear call from the source; some entries with a clear call stand among them for comparison. Calls follow the shape of the dose curve; as a rule, active = well fitted inhibition curve with a large enough effect in the main read-out, with a control signal flat (not every such curve was filed as active); inconclusive = small, poorly fitted or top-dose-only effect, or a change in a side signal; inactive = flat fitted curve, though single readings scatter. Potencies beside an inconclusive call are fits to weak or partial responses and may not hold up. A note “side channel” means that the fit belongs to a control or component signal, not to the main read-out.

Molecular target: Caspase-7 (Homo sapiens) (UniProt P55210)
Assay: qHTS Assay for Allosteric/Competitive Inhibitors of Caspase-7; as to activity change, negative = inhibition: % of control where 0% means no effect
Details: recombinant caspase-7, Ac-DEVD-AFC fluorescence rate; activity change, negative = inhibition: at 57.5 µM (top of the series) unless noted
Potency is read from the fitted curve at half-maximal effect; tags tell the direction and shape of the fitted curve or compound fluorescence and quenching.

UniProt P55210, sequence (P55210 whole entry, looked up): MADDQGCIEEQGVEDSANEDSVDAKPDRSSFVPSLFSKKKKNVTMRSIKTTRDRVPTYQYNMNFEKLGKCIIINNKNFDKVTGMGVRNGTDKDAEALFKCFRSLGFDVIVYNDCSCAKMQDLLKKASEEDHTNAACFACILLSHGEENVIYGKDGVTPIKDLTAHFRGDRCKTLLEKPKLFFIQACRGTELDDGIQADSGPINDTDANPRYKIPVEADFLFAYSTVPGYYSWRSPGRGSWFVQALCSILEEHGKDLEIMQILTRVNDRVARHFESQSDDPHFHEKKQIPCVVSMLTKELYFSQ

Potency, inconclusive:
O=c1c(-c2ccccc2)nc2cnc(N3CCOCC3)nc2n1Cc1cccs1 3.16 µM [fluorescent, full curve], COc1ccc(-c2ccc(-c3noc(C4CCCCC4)n3)c(OC)n2)cc1 25.1 µM [inhibitor, single point], COc1cccc(Cn2c(=O)c(-c3cccc(C#N)c3)nc3cnc(N4CCN(C)CC4)nc32)c1 15.8 µM [fluorescent, side channel, partial curve], Cn1c(C(=O)NCCC2=CCCCC2)cc2c(=O)n3ccccc3nc21 2 µM [inhibitor, full curve], COc1ccc(CNC(=O)c2cc3c(=O)n4ccccc4nc3n(Cc3ccco3)c2=N)cc1 10 µM [fluorescent, side channel, partial curve], N#Cc1c2c(c(NCCN3CCOCC3)n3c1nc1ccccc13)CCCC2 10 µM [fluorescent, partial curve], COc1ccc(Br)cc1C1NC(=O)c2c(sc3c2CCN(C)C3)N1 (configuration not stated) 12.6 µM [fluorescent, partial curve], CCN1C(=O)c2cccc3c(S(=O)(=O)Nc4ccccn4)ccc1c23 25.1 µM [inhibitor, single point], Cc1ccc(S(=O)(=O)c2cc3c(=O)n4ccccc4nc3n(CC3CCCO3)c2=N)cc1C (configuration not stated) 3.98 µM [fluorescent, full curve], CS(=O)(=O)N1CCN(C(=O)c2csc3ccccc23)CC1 5.01 µM [fluorescent, side channel, partial curve], COC(=O)C1=CN(C)C=C(C(=O)OC)C1c1ccc(O)c(OC)c1 25.1 µM [inhibitor, single point], COC(=O)C1=CN(C2CC2)C=C(C(=O)OC)C1c1ccccc1OC 5.01 µM [fluorescent, side channel, partial curve], CC1CCN(C(c2ccc(N(C)C)cc2)c2nnnn2C(C)(C)C)CC1 (configuration not stated) 25.1 µM [fluorescent, side channel, single point], Cc1ccc2[nH]c3c(c2c1)CN(C(=O)CN1CCN(c2ccccc2)CC1)CC3 10 µM [inhibitor, partial curve], Cc1ccc(C2NC(=O)NC3=C2CCc2ccccc23)cc1 (configuration not stated) 31.6 µM [fluorescent, single point], O=C(CCN1C(=O)C2CC=C(Cl)CC2C1=O)N1CCCCC1 (configuration not stated) 25.1 µM [fluorescent, partial curve], CCN1CC=C2C(C#N)=C(N)C(C#N)(C#N)C(c3cc(Cl)ccc3Cl)C2C1 (configuration not stated) 15.8 µM [fluorescent, side channel, partial curve], COc1ccc(-c2nc(N)ncc2Oc2ccccc2Br)c(O)c1 31.6 µM [inhibitor, single point], COc1ccc(C2=CC(c3ccc(Cl)cc3)n3cnnc3N2)cc1OC (configuration not stated) 3.98 µM [inhibitor, single point], CN1CCN(c2ncc3nc(-c4cccs4)c(=O)n(-c4ccccc4)c3n2)CC1 3.16 µM [fluorescent, side channel, partial curve], COCCn1c(=O)c(CCc2ccccc2)nc2cnc(N3CCNCC3)nc21 20 µM [fluorescent, partial curve], CCOc1ccc2nc3sc(C(=O)N4CCN(C)CC4)c(N)c3cc2c1 25.1 µM [fluorescent, partial curve], COCCn1c(=O)c(-c2cccs2)nc2cnc(Oc3ccc(OC)cc3)nc21 25.1 µM [fluorescent, partial curve], CCCn1c(=NC(C)=O)c(C(=O)OCC)cc2c(=O)n3ccccc3nc21 10 µM [fluorescent, side channel, partial curve], CCCCn1nc(NC(=O)c2cccs2)c2cc3cc(OC)ccc3nc21 15.8 µM [fluorescent, partial curve], Cn1c(=O)c(-c2ccccc2)nc2cnc(N3CCNCC3)nc21 10 µM [fluorescent, side channel, partial curve], CN(C)c1ncc2nc(-c3cn(C)c4ccccc34)c(=O)n(C[C@H]3CCCO3)c2n1 2 µM [inhibitor, full curve], O=C1Nc2ccc(S(=O)(=O)NCCC3=CCCCC3)c3cccc1c23 25.1 µM [fluorescent, single point], O=C1C2CC=C(Cl)CC2C(=O)N1CCc1ccccc1 (configuration not stated) 31.6 µM [inhibitor, single point], CCCCN(C)Cc1c(O)ccc2c(-c3ccccc3)cc(=O)oc12 15.8 µM [fluorescent, partial curve], CC1(C)Cc2c(C#N)c(SCC(=O)c3ccccc3)nc(N3CCOCC3)c2CO1 25.1 µM [fluorescent, side channel, single point], CCOc1ccc(CCNC(=O)C2CCN(c3ccc(N4CCOCC4)nn3)CC2)cc1OCC 15.8 µM [fluorescent, partial curve], CC(C)c1cc(=O)oc2c3c4c(cc12)CCCN4CCC3 3.98 µM [fluorescent, side channel, partial curve], N=c1c(C(=O)NCc2ccc(F)cc2)cc2c(=O)n3ccccc3nc2n1Cc1ccco1 1.58 µM [fluorescent, side channel, full curve], CCNc1ncc2nc(-c3cn(C)c4ccccc34)c(=O)n(C)c2n1 3.16 µM [fluorescent, side channel, partial curve], CCCn1c(=NC(C)=O)c(C#N)cc2c(=O)n3cccc(C)c3nc21 2.51 µM [fluorescent, side channel, full curve], Cc1cc(C)c2nc(N3CCCC3)c(C#N)cc2c1 25.1 µM [fluorescent, side channel, single point], Cc1ccc(-c2cc(C(F)(F)F)c(C#N)c(SCCC#N)n2)o1 25.1 µM [fluorescent, partial curve], Cc1cc(NCCCN2CCOCC2)n2c(nc3ccccc32)c1C#N 12.6 µM [fluorescent, side channel, partial curve], CCNc1ncc2nc(C)c(=O)n(C)c2n1 25.1 µM [fluorescent, partial curve], COc1ccc2noc3c2c1C(=O)c1ccccc1-3 12.6 µM [fluorescent, side channel, partial curve], OCC1OC([S-])[C@H](O)C(O)C1O.[Au+] (some centres not stated) 31.6 µM [inhibitor, single point], Cc1ccc2nc(-c3ccc(N)cc3)sc2c1S(=O)(=O)O 31.6 µM [fluorescent, side channel, partial curve], CCOC(=O)c1cc2c(=O)n3ccccc3nc2n(C(C)C)c1=NC(=O)c1ccncc1 25.1 µM [fluorescent, partial curve]

Potency, inactive:
COc1ccccc1C1C=C(c2ccccc2)Nc2nnnn21 (configuration not stated), O=C(CCS(=O)(=O)c1cccc2nonc12)N1CCCc2ccccc21, COc1ccccc1N(CCC#N)C(=O)CSc1ccc2c(c1)OCCO2, CC(=O)N1CCC[C@@]2(CCN(C(=O)Nc3cccc(C#N)c3)C2)C1, CCOC(=O)CN(C(=O)CNC(=O)c1ccco1)C(C(=O)NC1CCCC1)c1ccccc1OCC (configuration not stated), COCCNc1nc2c(c(=O)n(C)c(=O)n2C)n1Cc1cccc(C)c1, COc1ccc(-c2cc(-c3ccc(OC)cc3)[nH]n2)cc1, CCCCCC(=O)O[C@H](CC(=O)O)C[N+](C)(C)C, CC(C)CC(c1nnnn1Cc1ccco1)N1CCN(C2CCCC2)CC1 (configuration not stated), Cc1cc(C(=O)CSc2nnnn2-c2ccccc2)c(C)n1CC1CCCO1 (configuration not stated), CCN(CC)CC(=O)c1c[nH]c2ccccc12, C=CCSc1nnc2nc3c(nn12)c1cc(C)ccc1n3CC=C, O=C1C2C(C(=O)N1c1ccncc1)C1C=CC2C12CC2 (configuration not stated), COC(=O)[C@@]1(Cc2ccccc2)[C@H]2c3cc(C(=O)N(C)C)n(Cc4ccc(S(C)(=O)=O)cc4)c3C[C@H]2CN1C(=O)c1ccccc1, CC(C)(C)NC(=O)c1ccc(NC(=O)C2COc3ccccc3O2)cc1 (configuration not stated), O=C(NCc1ccco1)C(c1ccco1)N(CCc1ccccc1)C(=O)Cn1nnc2ccccc21 (configuration not stated), CCCC12CN3CC(C)(CN(C1)C3c1ccc(OC(C)C)cc1)C2=O (configuration not stated), Cc1nnc2sc(-c3csc4c3CCCC4)nn12, COc1ccc(C2C3=C(N=C4SCC(=O)N42)c2ccccc2CC3)cc1 (configuration not stated), O=c1[nH]ncc2ccccc12, CSc1cccc(NC(=O)CN(c2cc(C)ccc2C)S(C)(=O)=O)c1

Activity change, negative = inhibition, inactive:
O=C(O)c1cccc(CN2CCCCC2)c1 -3.44% [at 11.5 µM], O=C(O)c1cccc(C[C@H](Br)C(=O)O)c1 -0.13% [at 11.5 µM]
